The record followed here is the RNAGym collection of RNA variant scans (doi:10.1101/gad.245936.114).

Variants at the background level are over-represented here.

Sequences and labels used below:
B1: tRNA (parent)
chain: CUCUCGGUAGCCAAGUUGGUUUAAGGCGCAAGACUUUAAUUUAUCACUACGAAAUCUUGAGAUCGGGCGUUCGACUCGCCCCCGGGAGAUUUUUUCCUCGAGCAA

The variants in this data set derive from B1. As to the kind of experiment: nonsense suppression (GFP-seq) (ratio to wild type); higher = more function; SUP4oc tRNA, yeast GFP reporter sort-seq. A digest of the protocol:
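Raffinose/galactose medium with 80 mg/L adenine was used to grow yeast carrying genome-integrated tRNA variants (~3% random-mutation library), RFP, and a galactose-driven GFP ochre reporter. Cells went into GFP/RFP bins, which were Illumina-sequenced, and variants with ≥100 reads and ≥30 cells were scored. Nonsense suppression (GFPSEQ) is the per-bin median GFP/RFP weighted by estimated cell share and expressed relative to the unmutated parent tRNA.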
Turning to CUCUCGGUAGCCAAGUUGGUUUAAGGCGCAAGACUUUAAUUUAUCACUACGAAAUCUUGAGAUCGGGCGUUCAACUCGCCCCCGGGAGUUUUUUUCCUCGAGCAA [G73A A89U], the nonsense suppression is at most 0.026.
The same measure for CUCUCGGUAGCCAAGUUGGUUUAAGACGCAAGAGUUUAAUUUAUCACUACGAAAUCUUGAGAUCGGGCGUUCGACUCGCCCCCGAGAGAUUUUUUCCUCGAGCAA [G26A C34G G85A]: at most 0.026; for CUCUCGGUGGCCAAGUUGGUUUAAGGCGCAAGACUUUAAUUUAUCACUACGAAAUCUUGAGAUCGGUCGUUCGACUCGCCCCCGGGAGAUUUUUUCCUCGAGCAA [A9G G67U]: at most 0.026.
Regarding CUCUCGGUAGCCAAGUUGGUUUAAUGCGCAAGACUUUAAUUUAUCACUACGAAAUCUUGAGAUCGGGCGUUCCACUCGCCCCCGGGAGAUUUUUUCCUCGAGCAA [G25U G73C], the nonsense suppression is at most 0.026.
For the variant CUUUCGGUAGCCAAGUUGGUUUAAGGCGCAAGACUUUAAUUUAUCACUACGAAGUCUGGAGAUCGGGCGUUCGACUCGCCCCCGGGAGAUUUUUUCCUCGAGCAA [C3U A54G U58G], the nonsense suppression was at most 0.026.
As to CUCUCGGUAGCCAAGUUGGUUUAAGGCGCAACACUUUAAUUUAUCACUACGAAAUCUUGAGAUCGGGCGUUCGGCCCGCCCCCGGGACAUUUUUUCCUCGAGCAA [G32C A74G U76C G88C], the nonsense suppression was at most 0.026.
Turning to CUCUCGGUAGCCAAGUUGGCUUAAGGCGCAAGACUUUAAUUUAUCACUACGAAGUCUUGAGAUCGGGCGUUCGACUCGCCCCCGGGAGAUUUUUUCCUCGAGCAA [U20C A54G], the nonsense suppression came out at 0.052.
For CUCGCGGUAGCCAAGUUGUUUUAAGGCGCAAGACUUUAAUUUAUCACUACGAAAUCUUGAGAUCGAGCGUUCGACUCGCCCCCGGGAGAUUUUUUCCUCGAGCAA [U4G G19U G66A], the nonsense suppression is at most 0.026.
For the variant AUCUCAGUAGCCAAGUUGGUUCAAGGCGCAAGAGUUUAAUUUAUCACUACGAAAUCUUGAGAUCGGGCGUUCGACUCGCCCCCGGGAGGUUUUUUCCUCGAGCAA [C1A G6A U22C C34G A89G], the nonsense suppression was at most 0.026.
Consider CUCUCGGUAGCCUAUAUGGUUUAAGGCGCAAGACUUUAAUUUAUCACUACGAAAUCUUGUGAUCGGUCGUUCGACUCGCCCCCGGGAGAUUUUUUCCUCGAGCAA [A13U G15U U16A A60U G67U], for which the nonsense suppression was at most 0.026.
With CUCUCGGUCGACAAGUUGGUUUAAGGCGCAAGACCUUAAUUUAUCACUACGAAAUCUUGAGAUCGGGCGUUCGACUCGCCCCCGGGAGAUUUUUUCCUCGAGCAA [A9C C11A U35C], the nonsense suppression is at most 0.026.
Regarding CACUCGGUAGCCAAUUUCGUUUAAGGCGCAAGACGUUAAUUUAUCACUACGAAAUCUUGAGAUCCGGCGUUCGACUUGCCCCCGGGAGAUUUUUUCCUCGAGCAA [U2A G15U G18C U35G G65C C77U], the nonsense suppression was at most 0.026.
Consider CUCUCGGUCGCCAAGUUGGUUUAAGUCGCAAGACUUUAAUUUAUCACUACGAAAUCUUGAGAUCGGGCGUUCGAAUCGCCCCCGGGAGUUUUUUUCCUCGAGCAA [A9C G26U C75A A89U], for which the nonsense suppression was at most 0.026.
Take CUCUCGGUAGCGAAGUUGGUUUAAGGCGCAAGAGUUUAAUUUAUCACUACGAAAUCCCGAGAUCGGGCGUUCGACUCGCCCCCGGGAGAUUUUUUCCUCGAGCAA [C12G C34G U57C U58C]: the nonsense suppression is at most 0.026.
The same measure for CUCUCGGUAGCCAAGUUGAUUUAAGGCGCAAGACAUUAAUUUAUCACUACGAAAUCUUGGGAUCGGGCGUUCGACUCGCCCCCGGGAGAUUUUUUCCUCGAGCAA [G19A U35A A60G]: at most 0.026; for CUCUCGGUAGCCAAGUUGGUUUAAGGCGCAAGACUUUAAUUUAUCACUACGAAAUCUUGAAAUCGGGCCUUGGACUAGCCCCCGGGAGCUUUUUUCCUCGAGCAA [G61A G69C C72G C77A A89C]: at most 0.026; for CUCUCGUUAGCCAAGUUGGUUUAUGGCGCAAGACUUUAAUUUAUCACUACGAAAUCUUGAGAUCGGUCGUCCGACUCGCCCCCGGGAGAUUUUUUCCUCGAGCAA [G7U A24U G67U U71C]: at most 0.026.
As for CUCUCGGUAGCCAGGUUGGUUUAACGCGCAAGACUUUAAUUUAUCACUACGAAAUCUUGAGAUCGGGCGUUCGACGUGCCCCCGGGAGAUUUUUUCCUCGAGCAA [A14G G25C U76G C77U], the nonsense suppression was at most 0.026.
Regarding CUCUCGGUAGCCCAGUUGGUUUAAGGCGCGAGACUUUAAUUUAUCACUACGAAAUCUUGAGAUCGGGCGUUCGACUCGCCCCCGGGAGAUUUUUUCCUCGAGCAA [A13C A30G], the nonsense suppression turned out to be 0.892.
CUCUCGGUAGCCAAGUUGGUUUAAGGCGCAAGACUUUAAUUUAUCACUACGAAAUCUUGAGAUCGGGCGUUCGAUUCGCCCAGGGGAGAUUUUUUCCUCGAGCAA [C75U C82A C83G]: the nonsense suppression was at most 0.026.
For the variant CUCCCGGUAGCCAAGUCGGUUUAAGUCGCAAGACUUUAAUUUAUCACUACGAAAUCUUGAUAUCGGGCGUUCGACUCGCCCCCGGGAGAUUUUUUCCUCGAGCAA [U4C U17C G26U G61U], the nonsense suppression was at most 0.026.
With CUCUCGGUAGCCAAGUUGGUUUAAGGCGAAAGACUUUAAUUUAUCACUACGAAAUCUUGAUAUCGGGCGUUCGACUCGCCCCCGUGAGAUUUUUUCCUCGAGCAA [C29A G61U G85U], the nonsense suppression is at most 0.026.
With CUCUCGGUAGCCAAGUUGGUUUACGGCGCAAGACUUUAAUUUAUCACUACGAAAUCUUGAGAUCGGGCGUUUGACUCGCCCCCGGGAGAUUUUUUCCUCGAGCAA [A24C C72U], the nonsense suppression is 0.0288.
For the variant CUCUCGGUAGCCAUGUUGCUUUAAGGAGCAAGACUUUAAUUUAUCACUACGAAAUCUUGAGAUCGGGCGUUCGACUCGCCCCCGGGAGUUUUUUUCCUCGAGCAA [A14U G19C C27A A89U], the nonsense suppression is at most 0.026.
On to CUCUCGGUAGCCAAGUUGGUUUAAGACGCAAGACUUUAAUUUAUCACUACGAAAUCUUGAGAUCGUGCGCUCGACUCGCCCCCGGGAGAUUUUUUCCUCGAGCAA [G26A G66U U70C], for which the nonsense suppression is at most 0.026.
With CUCUCGGUAGCCACGUUGGUUUAAGGCGCAAGACUUUAAUUUAUCACUACGAAAUCUUGAGAUUGGGCGUUCGACUCGCCCCCGGGAGAUUUUUUCCUCGAGCAA [A14C C64U], the nonsense suppression was at most 0.026.
The same measure for CUCUCGGAAGCCAAGCUGGUCUAAGGCGCAAGACUUUAAUUUAUCACUACGAAAUCUUGAGAUCGGGCGUUGGACUCGCCCCCGGGAGAUUUUUUCCUCGAGCAA [U8A U16C U21C C72G]: at most 0.026.
